# Data: publication PMC6919601, “Identification of Plasmodium dipeptidyl aminopeptidase allosteric inhibitors by high throughput screening” (PLoS ONE, 2019)
# Out of some 110,000 compounds screened, about 230 (0.21%) showed an effect of 50% or more. Some of the results follow.
# Biological target: DPAP1 (Plasmodium falciparum, UniProt Q8IIJ9)
# Experiment: primary screen, percent inhibition; read by cleavage of a fluorogenic dipeptide substrate; higher = more effect of the substance
# Set-up: species or system P. falciparum D10 trophozoite lysates; single well
# 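Further: 30 min substrate incubation versus DMSO and 10 µM JCP410 controls.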
# Chain of DPAP1 (Q8IIJ9 whole entry, looked up): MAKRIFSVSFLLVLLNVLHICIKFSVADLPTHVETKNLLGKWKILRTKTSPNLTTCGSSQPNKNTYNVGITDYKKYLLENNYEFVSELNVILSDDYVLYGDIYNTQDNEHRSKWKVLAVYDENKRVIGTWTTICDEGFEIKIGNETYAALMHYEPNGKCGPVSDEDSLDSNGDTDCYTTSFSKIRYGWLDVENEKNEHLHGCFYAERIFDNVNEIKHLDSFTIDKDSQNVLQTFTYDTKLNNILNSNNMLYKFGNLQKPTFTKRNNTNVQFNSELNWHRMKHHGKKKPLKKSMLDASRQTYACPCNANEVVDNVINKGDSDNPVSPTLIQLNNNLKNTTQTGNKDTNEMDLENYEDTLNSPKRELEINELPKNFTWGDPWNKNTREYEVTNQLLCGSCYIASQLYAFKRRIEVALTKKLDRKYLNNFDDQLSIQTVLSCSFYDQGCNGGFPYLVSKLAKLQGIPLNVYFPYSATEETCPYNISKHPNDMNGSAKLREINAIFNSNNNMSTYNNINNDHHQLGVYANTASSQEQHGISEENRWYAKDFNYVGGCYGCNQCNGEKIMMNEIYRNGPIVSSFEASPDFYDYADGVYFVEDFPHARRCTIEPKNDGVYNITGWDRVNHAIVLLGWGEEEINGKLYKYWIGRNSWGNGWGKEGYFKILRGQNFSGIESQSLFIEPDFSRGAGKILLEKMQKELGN
row,Compound,% Inhibition @ 10 uM
1,c1ccc2c(c1)nc(NC1CCCCC1)c1nnnn12,-2.47%
2,CC(=O)c1ccc2[nH]c3c(c2c1)CCCC3=O,-4.18%
3,CN1CCN(C(=O)c2cnn(-c3ccccc3Cl)c2NC(=O)c2ccco2)CC1,5.49%
4,OC(Cn1nnnc1-c1ccccc1)Cn1nnnc1-c1ccccc1,1.24%
5,CC(=O)c1ccc(NC(=O)c2cc3ccccc3oc2=O)cc1,4.33%
6,O=c1oc2ccccc2c(O)c1Cc1ccccc1,14.5%
7,COc1cccc(CN2CCN(Cc3ccc(Br)cc3)CC2)c1,-7.93%
8,COc1ccccc1-c1nnc(C2CCN(S(=O)(=O)c3cccc(Cl)c3)CC2)o1,-1.08%
9,O=C(COc1ccc([N+](=O)[O-])cc1)NCCc1ccccc1,-1.29%
10,Cc1ccc(C(CCNC(=O)c2cccs2)c2ccco2)cc1 (stereo not drawn),-0.0735%
11,CC(O)(C#CCO)c1ccc2ccccc2c1 (stereo not drawn),-0.0372%
12,COc1ccc(OC)c(CCNC(=O)Cn2sc3nc(C)cc(C)c3c2=O)c1,-1.37%
13,CCN(CC)CCNC(=O)Cn1nc(C)c2sc3ccccc3c2c1=O,-2.45%
14,CC1=NC2=C(C(=O)CC(C)(C)C2)C(c2cccc(Cl)c2Cl)/C1=C(\O)OC(C)C (stereo not drawn),-0.445%
15,COc1ccccc1OCCCn1c(C)c(/C=C2/C(=N)N3C=CSC3=NC2=O)c2ccccc21,3.47%
16,CSc1nc(C)c(-c2ccncc2)c(-c2cccnc2)c1C#N,-2.45%
17,O=C(C1CCC(CNS(=O)(=O)c2ccc(Cl)cc2)CC1)N1CCCC1 (stereo not drawn),0.718%
18,O=C(NCCc1ccccc1)C1CCN(S(=O)(=O)c2ccc3nc(O)ccc3c2)CC1,2.24%
19,O=C(c1ccccc1SCc1ccc(F)cc1)N1CCOCC1,-0.736%
20,CCCCN(Cc1ccccc1)C1CCN(C)CC1,-9.33%
21,Cc1ccc(C2CC(C(F)(F)F)n3ncc(C(=O)NCC4CCCO4)c3N2)cc1 (stereo not drawn),7.93%
22,Cc1ccc2nc3c(O)n(C)cnc-3c2c1,5.06%
23,COC(=O)/C(=C(/F)Sc1ccc(O)c(C)c1)C(F)(F)F,-3.41%
24,Cc1ncc(CO)c2cc(-c3nc4ccncc4[nH]3)c(=O)oc12,-4.58%
25,Cc1nc2ccccc2n1C(=O)N(C)C,-4.7%
26,Cc1cc(C)c2nc(N3CCCC(C(=O)NCc4ccc5c(c4)OCO5)C3)sc2c1 (stereo not drawn),4.95%

row,Compound,% Inhibition @ 10 uM
1,CCOC(=O)N1CCC(N2CCN(c3ccc(F)cc3)CC2)CC1,-2.95%
2,Cc1nn(CC(=O)NCCCN2CCc3ccccc3C2)c(=O)c2cc3cc(F)ccc3n12,0.0198%
3,CCN(CC)CCCNc1ncnc2c1cnn2C,2.88%
4,Cc1onc(-c2c(F)cccc2Cl)c1C(=O)Nc1ccc2c(c1)NC(=O)CS2,-20.7%
5,Cc1ccccc1-c1nc(CS(=O)(=O)CC(=O)NCc2ccc(OC(C)C)cc2)c(C)o1,-5.15%
6,CN1CCN(C(=O)c2ccc(CS(=O)(=O)c3ccc(Br)cc3)o2)CC1,2.14%
7,Cc1ccc(S(=O)(=O)c2cc3c(=O)n4ccccc4nc3n(CC3CCCO3)c2=N)cc1 (stereo not drawn),0.222%
8,Cc1ccc(C(=O)CC#N)cc1,-4.74%
9,CS(=O)(=O)N1CCc2cc(C(=O)Nc3ccc(Cl)cc3)ccc21,1.8%
10,Cc1noc(NS(=O)(=O)c2ccc(NC(=O)C(C)C)cc2)c1C,-3.19%
11,Cn1cc(NC(=O)NCCN2CCCC2)c2ccccc2c1=O,4.2%
12,O=C(Nc1cc(Cl)cc(Cl)c1)c1ccc(Cl)cc1Cl,1.91%
13,Oc1cccc2ccc(/C=C/c3ccc(Br)o3)nc12,-2.87%
14,N#CC1=C(N)OC2=C(C(=O)CCC2)C1c1ccc(F)cc1 (stereo not drawn),3.16%
15,CC(C(=O)N1CCCc2c1c(=O)oc1ccc(OCc3ccccc3)cc21)N1CCCCCC1 (stereo not drawn),-3.51%
16,CC(=O)c1sc2nc(-c3ccc(Cl)cc3)cn2c1C,1.47%
17,O=C(C1c2ccccc2Oc2ccccc21)N1CCc2ccccc21,0.214%
18,Cc1nn(-c2ccccc2)c(C)c1/C=N/n1cnnc1,-8.43%
19,CCOc1cc(/C=C2/NC(=O)N(Cc3ccccc3F)C2=O)cc(Cl)c1O,-0.62%
20,CN1CCN(C(=O)CCc2ccccc2)CC1,-3.63%
21,COc1ccc(OC)c(CN2CCC(O)CC2)c1,-1.38%
22,O=C(c1ccccc1Br)N1CCN(c2cccc(Cl)c2)CC1,-3.04%
23,CCOc1ccc(C)cc1-n1nc2ccccc2n1,2.57%
24,CS(=O)(=O)N(Cc1ccccc1Cl)c1ccc(C(=O)NCc2ccccn2)cc1,-25.2%
25,COc1ccc(/C=C/C(=O)c2ccc3ccccc3c2O)cc1,3.72%
26,CCCCN1C(=O)C(Cl)=C(Cl)C1NC(=O)c1ccccc1 (stereo not drawn),-9.05%

row,Compound,% Inhibition @ 10 uM
1,Cc1ccc(O)c(C2=NN3C(C2)c2cc(Cl)ccc2OC3c2ccncc2)c1 (stereo not drawn),1.76%
2,c1ccc(CCSc2nc3ccccc3[nH]2)cc1,-1.81%
3,CCOC(=O)N1CCC(NC(=O)CSCc2nc(-c3sccc3C)oc2C)CC1,-4.71%
4,COc1cc(-c2ccccc2)nc(N)n1,5.09%
5,COc1ccc(C2=CC(=O)OC(C)(c3ccccc3)O2)cc1 (stereo not drawn),3.6%
6,Nc1c(C(=O)NCCc2ccc(S(N)(=O)=O)cc2)sc2nc3c(cc12)CCCC3,-2.37%
7,Cc1ccccc1OCC(=O)Nc1sc2c(c1C(N)=O)CCCC2,-3.37%
8,CCCNC(=O)CCn1c(=O)c2cccn2c2cccnc21,-3.61%
9,COc1ccc(CN2CCN(Cc3ccccc3Cl)CC2)cc1OC,3.12%
10,CCCOc1ccc(C2CC(=O)NC3=C2C(=O)CC(c2ccc(F)cc2)C3)cc1 (stereo not drawn),0.205%
11,Cc1onc(-c2ccccc2)c1C(=O)N1CC(C)N(C(=O)c2c(-c3ccccc3)noc2C)CC1C (stereo not drawn),1.28%
12,CCN(CC)CCNC(=O)c1ccc2c(c1)sc1nc(-c3ccccc3)cn12,1.92%
13,CC(Cc1ccccc1)N1CCC(=O)C2=C1CCC2 (stereo not drawn),4.26%
14,COc1ccccc1NC(=O)C1CCC(C)(C(=O)O)C1(C)C (stereo not drawn),5%
15,CCOC(=O)c1ccc(NC(=O)C2CCC(C)CC2)cc1 (stereo not drawn),-0.0953%
16,CC(C)=CCCC1=CCC2(COC(c3cccnc3)OC2)C(C)C1 (stereo not drawn),-2.47%
17,O=C1c2ccccc2C(=O)N1CCCC(=O)N1CCc2ccccc21,3.34%
18,Cc1ccc(C2=NC(=O)C(c3c[nH]c4ccccc34)N(C(=O)c3ccccc3)N2)cc1 (stereo not drawn),4.37%
19,Cc1nn(CC(=O)NCCCN2CCOCC2)c(=O)c2cc3cc(F)ccc3n12,-1.7%
20,O=C(O)CCCN1C(=O)C(O)=C(C(=O)c2ccc(Cl)cc2)C1c1ccccc1F (stereo not drawn),-0.545%
21,CCc1c(O)cc2cc(OC)c(OC)cc2c1NCc1ccccc1,3.15%
22,CCOc1ccc(/C=c2\sc3nc(-c4cccs4)nn3c2=O)cc1OC,3.54%
23,Cc1nc(CCNC(=O)c2ccc(F)c(F)c2)cs1,-0.72%
24,Cc1ccc(CCC(=O)Nc2ccccc2)o1,-11.7%
25,CCOc1cc(C2c3c(oc4ccc(C)cc4c3=O)C(=O)N2Cc2ccc(F)cc2)ccc1O (stereo not drawn),0.415%
26,Cc1ccccc1Cn1c(=O)n(Cc2ccc3c(c2)OCO3)c(=O)c2cccnc21,1.72%

row,Compound,% Inhibition @ 10 uM
1,CCS(=O)(=O)c1nc2ccccc2n1CC(N)=O,2.31%
2,Cc1cc2nc(Nc3nc(C)c(C)c(O)n3)nc(C)c2cc1C,-0.173%
3,Cc1cc(Cl)ccc1N(CC(=O)Nc1ccc(C(C)C)cc1)S(C)(=O)=O,3.83%
4,CCOC(=O)c1ccc2nc(C(F)(F)F)nc(NCCc3ccc(OC)c(OC)c3)c2c1,2.31%
5,c1ccc(C2CCc3ccccc3O2)cc1 (stereo not drawn),1.02%
6,Nc1ccc(C(=O)c2cccs2)cc1[N+](=O)[O-],0.0345%
7,O=[N+]([O-])c1ccc(-c2cc3ccccn3c2)cc1,-0.128%
8,O=C(Nc1cccc([N+](=O)[O-])c1)N(O)c1cccc(Cl)c1,0.989%
9,COc1ccccc1C(=O)N/C(=C\c1ccc2c(c1)OCO2)C(=O)NC(CCSC)C(=O)O (stereo not drawn),-1.19%
10,COc1ccccc1NC(=O)c1c(NC(=O)CN2CCCCC2)sc2c1CCC2,-2.94%
11,COc1ccc(CCNc2ncnc3c2cnn3-c2ccc(C)cc2)cc1OC,-2.31%
12,CN1CCN(Cc2ccccc2Br)CC1,1.63%
13,COC(=O)C1=C(C)N=c2s/c(=C\c3ccc(OC)cc3)c(=O)n2C1c1ccc(OC)cc1 (stereo not drawn),4.95%
14,CCc1ccc(-c2cc(C(=O)NCc3ccc(C)o3)[nH]n2)cc1,-6.02%
15,COC(=O)c1ccccc1Oc1c(F)c(F)nc(NCCO)c1F,0.279%
16,CCc1ccccc1NC(=O)C1CCCCC1C(=O)O (stereo not drawn),-3.65%
17,CC(C)Cn1c(=O)c2ccccc2n2c(-c3ccc(C(F)(F)F)cc3)nnc12,-5.37%
18,O=C(O)CCNC(=O)/C(=C/c1ccccc1)NC(=O)c1cccc(Br)c1,0.746%
19,Cc1ccc(S(=O)(=O)Nc2nc3ccccc3nc2Nc2ccc(-c3ccc(N)cc3)cc2)cc1,-1.91%
20,CCC(C(=O)Nc1sc(C)c(C)c1C#N)c1ccccc1 (stereo not drawn),12.3%
21,N#Cc1c(-c2ccc(F)cc2)noc1N,-2.88%
22,CC1=C(C(=O)Nc2c(F)cccc2F)C(c2cccnc2)C2=C(O)CCCC2=N1 (stereo not drawn),-1.07%
23,CCCCCCOc1ccc(C(=O)NCCCn2ccnc2)cc1,5.44%
24,CS(=O)(=O)N(CC(=O)N1CCN(C(c2ccccc2)c2ccccc2)CC1)c1ccccc1F,-8.01%
